T1: Human VEGF-A protein (human, UniProt P15692-4 27-191, limits assumed)
T1 sequence (looked up): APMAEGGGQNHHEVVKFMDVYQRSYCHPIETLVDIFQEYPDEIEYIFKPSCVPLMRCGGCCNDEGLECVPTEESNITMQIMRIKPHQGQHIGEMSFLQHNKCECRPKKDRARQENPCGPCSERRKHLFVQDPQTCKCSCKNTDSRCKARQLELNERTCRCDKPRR


Molecular target: T1, Human VEGF-A protein
Test: cell-based or functional assay

Binder | VEGF-A IC50; VEGF-A-induced NFAT-RE-luc2P/KDR HEK293 reporter gene expression
PR1101 (R1D2-R2D3-linker-R2D2 (M197Y)-R2D3-Fc) (Fc fusion) SDTGRPFVEMYSEIPEIIHMTEGRELVIPCRVTSPNITVTLKKFPLDTLIPDGKRIIWDSRKGFIISNATYKEIGLLTCEATVNGHLYKTNYLTHRQTNTIIDVVLSPSHGIELSVGEKLVLNCTARTELNVGIDFNWEYPSSKHQHKKLVNRDLKTQSGSEMKKFLSTLTIDGVTRSDQGLYTCAASSGLMTKKNSTFVRVHEKGGGGSSPFIASVSDQHGVVYITENKNKTVVIPCLGSISNLNVSLCARYPEKRFVPDGNRISWDSKKGFTIPSYMISYAGYVFCEAKINDESYQSIMYIVVVVGYRIYDVVLSPSHGIELSVGEKLVLNCTARTELNVGIDFNWEYPSSKHQHKKLVNRDLKTQSGSEMKKFLSTLTIDGVTRSDQGLYTCAASSGLMTKKNSTFVRVHEK[human IgG1 Fc with changes not printed] | 0.54 nM
PR1116 (R1D2-R2D3-linker-R2D2-R2D3 (R275E)-Fc) (Fc fusion) SDTGRPFVEMYSEIPEIIHMTEGRELVIPCRVTSPNITVTLKKFPLDTLIPDGKRIIWDSRKGFIISNATYKEIGLLTCEATVNGHLYKTNYLTHRQTNTIIDVVLSPSHGIELSVGEKLVLNCTARTELNVGIDFNWEYPSSKHQHKKLVNRDLKTQSGSEMKKFLSTLTIDGVTRSDQGLYTCAASSGLMTKKNSTFVRVHEKGGGGSSPFIASVSDQHGVVYITENKNKTVVIPCLGSISNLNVSLCARYPEKRFVPDGNRISWDSKKGFTIPSYMISYAGMVFCEAKINDESYQSIMYIVVVVGYRIYDVVLSPSHGIELSVGEKLVLNCTARTELNVGIDFNWEYPSSKHQHKKLVNEDLKTQSGSEMKKFLSTLTIDGVTRSDQGLYTCAASSGLMTKKNSTFVRVHEK[human IgG1 Fc with changes not printed] | 0.54 nM
PR1113 (R1D2-R2D3-linker-R2D2-R2D3 (N274F)-Fc) (Fc fusion) SDTGRPFVEMYSEIPEIIHMTEGRELVIPCRVTSPNITVTLKKFPLDTLIPDGKRIIWDSRKGFIISNATYKEIGLLTCEATVNGHLYKTNYLTHRQTNTIIDVVLSPSHGIELSVGEKLVLNCTARTELNVGIDFNWEYPSSKHQHKKLVNRDLKTQSGSEMKKFLSTLTIDGVTRSDQGLYTCAASSGLMTKKNSTFVRVHEKGGGGSSPFIASVSDQHGVVYITENKNKTVVIPCLGSISNLNVSLCARYPEKRFVPDGNRISWDSKKGFTIPSYMISYAGMVFCEAKINDESYQSIMYIVVVVGYRIYDVVLSPSHGIELSVGEKLVLNCTARTELNVGIDFNWEYPSSKHQHKKLVFRDLKTQSGSEMKKFLSTLTIDGVTRSDQGLYTCAASSGLMTKKNSTFVRVHEK[human IgG1 Fc with changes not printed] | 0.49 nM

Next, values leading:

VEGF-A IC50; VEGF-A-induced NFAT-RE-luc2P/KDR HEK293 reporter gene expression | Binder
1.12 nM | PR1166 (R1D2-R2D3-linker-R2D2 (C162L)-R2D3-Fc) (Fc fusion) SDTGRPFVEMYSEIPEIIHMTEGRELVIPCRVTSPNITVTLKKFPLDTLIPDGKRIIWDSRKGFIISNATYKEIGLLTCEATVNGHLYKTNYLTHRQTNTIIDVVLSPSHGIELSVGEKLVLNCTARTELNVGIDFNWEYPSSKHQHKKLVNRDLKTQSGSEMKKFLSTLTIDGVTRSDQGLYTCAASSGLMTKKNSTFVRVHEKGGGGSSPFIASVSDQHGVVYITENKNKTVVIPCLGSISNLNVSLLARYPEKRFVPDGNRISWDSKKGFTIPSYMISYAGMVFCEAKINDESYQSIMYIVVVVGYRIYDVVLSPSHGIELSVGEKLVLNCTARTELNVGIDFNWEYPSSKHQHKKLVNRDLKTQSGSEMKKFLSTLTIDGVTRSDQGLYTCAASSGLMTKKNSTFVRVHEK[human IgG1 Fc with changes not printed]
0.28 nM | PR1115 (R1D2-R2D3-linker-R2D2-R2D3 (R275L)-Fc) (Fc fusion) SDTGRPFVEMYSEIPEIIHMTEGRELVIPCRVTSPNITVTLKKFPLDTLIPDGKRIIWDSRKGFIISNATYKEIGLLTCEATVNGHLYKTNYLTHRQTNTIIDVVLSPSHGIELSVGEKLVLNCTARTELNVGIDFNWEYPSSKHQHKKLVNRDLKTQSGSEMKKFLSTLTIDGVTRSDQGLYTCAASSGLMTKKNSTFVRVHEKGGGGSSPFIASVSDQHGVVYITENKNKTVVIPCLGSISNLNVSLCARYPEKRFVPDGNRISWDSKKGFTIPSYMISYAGMVFCEAKINDESYQSIMYIVVVVGYRIYDVVLSPSHGIELSVGEKLVLNCTARTELNVGIDFNWEYPSSKHQHKKLVNLDLKTQSGSEMKKFLSTLTIDGVTRSDQGLYTCAASSGLMTKKNSTFVRVHEK[human IgG1 Fc with changes not printed]
0.22 nM | PR1118 (R1D2-R2D3-linker-R2D2-R2D3 (D276Q)-Fc) (Fc fusion) SDTGRPFVEMYSEIPEIIHMTEGRELVIPCRVTSPNITVTLKKFPLDTLIPDGKRIIWDSRKGFIISNATYKEIGLLTCEATVNGHLYKTNYLTHRQTNTIIDVVLSPSHGIELSVGEKLVLNCTARTELNVGIDFNWEYPSSKHQHKKLVNRDLKTQSGSEMKKFLSTLTIDGVTRSDQGLYTCAASSGLMTKKNSTFVRVHEKGGGGSSPFIASVSDQHGVVYITENKNKTVVIPCLGSISNLNVSLCARYPEKRFVPDGNRISWDSKKGFTIPSYMISYAGMVFCEAKINDESYQSIMYIVVVVGYRIYDVVLSPSHGIELSVGEKLVLNCTARTELNVGIDFNWEYPSSKHQHKKLVNRQLKTQSGSEMKKFLSTLTIDGVTRSDQGLYTCAASSGLMTKKNSTFVRVHEK[human IgG1 Fc with changes not printed]
0.18 nM | PR1109 (R1D2-R2D3-linker-R2D2 (V219I)-R2D3-Fc) (Fc fusion) SDTGRPFVEMYSEIPEIIHMTEGRELVIPCRVTSPNITVTLKKFPLDTLIPDGKRIIWDSRKGFIISNATYKEIGLLTCEATVNGHLYKTNYLTHRQTNTIIDVVLSPSHGIELSVGEKLVLNCTARTELNVGIDFNWEYPSSKHQHKKLVNRDLKTQSGSEMKKFLSTLTIDGVTRSDQGLYTCAASSGLMTKKNSTFVRVHEKGGGGSSPFIASVSDQHGVVYITENKNKTVVIPCLGSISNLNVSLCARYPEKRFVPDGNRISWDSKKGFTIPSYMISYAGMVFCEAKINDESYQSIMYIVVVIGYRIYDVVLSPSHGIELSVGEKLVLNCTARTELNVGIDFNWEYPSSKHQHKKLVNRDLKTQSGSEMKKFLSTLTIDGVTRSDQGLYTCAASSGLMTKKNSTFVRVHEK[human IgG1 Fc with changes not printed]
0.36 nM | PR1114 (R1D2-R2D3-linker-R2D2-R2D3 (N274I)-Fc) (Fc fusion) SDTGRPFVEMYSEIPEIIHMTEGRELVIPCRVTSPNITVTLKKFPLDTLIPDGKRIIWDSRKGFIISNATYKEIGLLTCEATVNGHLYKTNYLTHRQTNTIIDVVLSPSHGIELSVGEKLVLNCTARTELNVGIDFNWEYPSSKHQHKKLVNRDLKTQSGSEMKKFLSTLTIDGVTRSDQGLYTCAASSGLMTKKNSTFVRVHEKGGGGSSPFIASVSDQHGVVYITENKNKTVVIPCLGSISNLNVSLCARYPEKRFVPDGNRISWDSKKGFTIPSYMISYAGMVFCEAKINDESYQSIMYIVVVVGYRIYDVVLSPSHGIELSVGEKLVLNCTARTELNVGIDFNWEYPSSKHQHKKLVIRDLKTQSGSEMKKFLSTLTIDGVTRSDQGLYTCAASSGLMTKKNSTFVRVHEK[human IgG1 Fc with changes not printed]

From patent publication US20260008835A1 (SHANGHAI REGENELEAD THERAPIES, published 2026)
